The values that follow come from PubChem BioAssay AID1508624 (National Center for Advancing Translational Sciences (NCATS), 2021).

Structures are written as SMILES. Values joined by “and” are separate entries in the source; they are usually repeats but may differ in a detail not shown here. Identical values can stand only once. Out of some 48,000 compounds screened, about 120 (0.25%) were called active. Roughly 4% stayed inconclusive and do not appear here. Calls come from the whole dose curve; as a rule, active = well fitted activation curve with a large enough effect; inconclusive = small, poorly fitted or top-dose-only effect, or another doubt; inactive = no such curve, though single readings can be large or run the other way. This is a selection; strong and weak results do not stand in their true shares. Entries without a call were filed so in the source.
Potency is the fitted concentration of half-maximal effect.

The test can be described thus: Primary qHTS for Identification of Small Molecule Activators of Huntingtin-Antisense Promoter Activity. Note: nearly all actives have a fitted effect of over 55% in size. The settings on record: HEK293 HTT-AS promoter firefly luciferase reporter, 24 h; activity change, positive = activation: at 57.5 µM (top of the series), percent change from vehicle, -100% = no light. The procedure, abridged:
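HEK293 luciferase promoter-reporter cells (2,500/well) plated 24 h, then compounds added at up to 57.5 uM final for 24 h at 37 °C. Firefly luminescence by Dual-Glo, normalized to vehicle (0%) and zero RLU (-100%).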
For orientation: In qHTS, concentration-response curves come from the screen itself.
Consider `N=c1n(CCO)c2ccccc2n1CCOc1ccc(F)cc1`, for which the activity change, positive = activation is -0.299%. The same measure, in the same setting: to `COC(=O)c1c(NC(=O)CCCOc2cccc(C)c2)sc2c1CCC(C)C2` (configuration not stated) belongs -8.85%.

For the compound `CC(C)(C)c1ccc(C(=O)Nc2ccc3nc(SCC(=O)N4CCCC4)sc3c2)cc1`, the “activity change, positive = activation” value was inactive: -86%. For `COc1ccc(-c2c3c(=O)n(C)c(=O)n(C)c3c3n2-c2ccccc2NC3c2ccccc2OC)cc1` (configuration not stated), the activity change, positive = activation is 16.6%. Same read-out and setting: to `OCCN1CCN(CCCN2c3ccccc3Sc3ccc(Cl)cc32)CC1` belongs inactive: -20.2%. Same read-out and setting: to `COc1cccc(CNC(=O)CCc2c(C)c3cc4c(C)coc4cc3oc2=O)c1` belongs -8.56%. With `COc1ccccc1-c1cc(C(=O)Nc2c(C)nn(Cc3ccc(Cl)cc3)c2C)no1`, the activity change, positive = activation was -73.4%.

Take `COc1ccc(C=Cc2cc(OC)c(OC)c(OC)c2)cc1NC(=O)[C@H](N)CO`: the “activity change, positive = activation” value was inactive: -37.3%. Consider `COc1ccc(-c2nc(CSCC(=O)N3CCN(c4ccc(OC)cc4)CC3)c(C)o2)cc1`, for which the “activity change, positive = activation” value was inactive: -21.7%. Still for that read-out and setting: the value for `COc1ccccc1N(CC(=O)NCCSCc1ccccc1Cl)S(C)(=O)=O` was inactive: -29.1%. Regarding `Cn1c(=O)n(C)c2cc(NS(=O)(=O)c3ccc(Br)cc3)c(NCc3ccccc3)cc21`, the activity change, positive = activation is 38.6%. With `O=S(=O)(Nc1cccc(-c2ccc(N3CCCCC3)nn2)c1)c1cccc(F)c1`, the activity change, positive = activation was found to be 42.9%. As to `COc1ccc(C2C(=O)N(C3CCC(C)CC3)CC(=O)N2CCc2ccccc2)cc1OC` (configuration not stated), the activity change, positive = activation was -12.6%. Regarding `CCOC(=O)c1sc(NC(=O)c2cc(CC)on2)c(C(=O)OCC)c1C`, the activity change, positive = activation was 2.48%. As to `Cc1nc2ccn(Cc3ccco3)c(=O)c2cc1C(=O)N1CCN(c2ccccc2F)CC1`, the activity change, positive = activation was -11.7%. On the same count and under the same terms, the value for `O=C(CC1C(=O)N(c2ccc(F)cc2)C(=O)N1Cc1cccnc1)Nc1ccc(F)cc1` (configuration not stated) was -6.27%. The same measure, in the same setting: the value for `Cc1cc(C)cc(NC(=O)CCc2c(C)nn(-c3ccc(N4CCCC4)nn3)c2C)c1` was 24.8%; that for `COc1ccc(-c2cc(C(C)=O)c(C)n2CCC(=O)Nc2cc(C)ccc2OC)cc1` was inactive: -21.8%. The same measure, in the same setting: to `COc1ccccc1CCNC(=O)Cc1c(C)c2ccc(O)cc2oc1=O` belongs -6.52%; to `COc1cccc(N2C(=O)C(CC(=O)Nc3cccc(F)c3)N(C(C)C)C2=O)c1` (configuration not stated), 1.53%; to `COc1ccc(-c2nnc(Nc3ccc(OCC(N)=O)cc3)c3ccccc23)cc1`, -21.4%. For `O=C(CCN1CCN(CCO)CC1)Nc1ccc(Br)cc1`, the activity change, positive = activation is -6.29%. Take `COc1ccc(C)cc1NC(=O)c1cc2ccccn2n1`: the activity change, positive = activation came out at 50.3%.

Consider `COc1ccc(N2CCN(C(=O)COc3ccccc3C#N)CC2)cc1`, for which the activity change, positive = activation came out at 3.66%. Still for that read-out and setting: the value for `COc1ccc(-c2cc(C(=O)Nc3cc(C)nn3-c3ccccc3)no2)cc1OC` was -8.15%. The same measure, in the same setting: the value for `CC1Cc2cc(S(=O)(=O)NCc3ccc(Cl)cc3)ccc2N1C(=O)C1CCC1` (configuration not stated) was -37.2%; that for `O=C(NCc1ccccc1)c1nc(-c2ccc(Cl)cc2)n2c1CCCCC2` was -21%; that for `Cc1ccccc1NC(=O)CCn1nc(-c2ccc(Cl)cc2)c2ccccc2c1=O` was -8.83%.

Turning to `Cc1ccc(CN2C(=O)CN(C3CCCCCC3)C(=O)C2c2ccc(F)cc2)cc1` (configuration not stated), the activity change, positive = activation is -21.5%. With `COc1cccc2cc(-c3nc4ccc(C)cc4[nH]3)c(=O)oc12`, the Potency is active: 316 nM. The same measure, in the same setting: to `NNc1nncc2ccccc12` belongs active: 2.24 µM and active: 7.69 µM. Same read-out and setting: the value for `O=C(CSc1nnc2[nH]c(=O)cc(-c3ccccc3)n12)Nc1ccccc1C(F)(F)F` was active: 11200 nM. With `Cc1ccc(SCCNC(=O)CN(c2cccc(C)c2C)S(C)(=O)=O)cc1`, the “activity change, positive = activation” value is inactive: -38.1%. On to `CCOC(=O)CCc1c(C)c2cc3c(c(C)c2oc1=O)OCN(CCc1ccccc1OC)C3`, for which the activity change, positive = activation was -22.7%.

Turning to `Cc1cc(N2CCN(C)CC2)nc2ccc(NC(=O)Nc3ccc(F)cc3)cc12`, the “activity change, positive = activation” value was inactive: 9.22%. Same read-out and setting: the value for `O=C(Nc1nc2nc(-c3ccccc3)cc(=O)n2[nH]1)c1ccc(F)cc1` was inactive: -8.24%; that for `Cc1ccc(C)c(OCCOCCn2c(-c3ccc(Br)cc3)nc3ccccc3c2=O)c1C` was 3.17%.

For the compound `CCOC(=O)c1cccc(NC(=O)CC(c2ccc(F)cc2)N2Cc3ccccc3C2=O)c1` (configuration not stated), the activity change, positive = activation came to 11.4%. Still for that read-out and setting: the value for `COc1ccc(Br)cc1CNC(=O)C1CCCCN1S(=O)(=O)c1ccc(F)cc1` (configuration not stated) was -16.1%; that for `Cc1ccc(Nc2nc3ccccc3c3nncn23)cc1C` was -1.3%; that for `N#C/C(=C\c1ccc(-c2cc(Cl)ccc2Cl)o1)C(=O)Nc1ccccc1C(=O)O` was inactive: -4.12%.

Regarding `COc1cc(-c2nnc(SCCOc3ccc(C)c(Cl)c3)o2)cc(OC)c1OC`, the activity change, positive = activation was -3.63%. With `CCCS(=O)(=O)Nc1cc2c(cc1NCc1ccccc1)n(C)c(=O)n2C`, the activity change, positive = activation came to 44.2%. Still for that read-out and setting: to `Cn1cnc2c(=O)oc3ccc(S(=O)(=O)N4CCN(c5cccc(Cl)c5)CC4)cc3c21` belongs -2.22%. The same measure, in the same setting: to `O=C(CSc1nc(-c2cccs2)nc2cc(=O)[nH]n12)Nc1ccc(F)cc1` belongs -6.17%; to `CCOC(=O)c1c(N)n(-c2cccc(C)c2C)c2nc3ccccc3nc12`, -2.57%. On to `COc1ccc(S(=O)(=O)Nc2cccc(-c3ccc(N4CCCCCC4)nn3)c2)c(OC)c1`, for which the activity change, positive = activation was 27.2%.
